# Data reported in article PMC4336329 (PLoS ONE, 2015).
# Out of some 310,000 compounds screened, about 14,000 (4.5%) showed an effect of 50% or more. The effect is printed as a negative number. The list shows a part of the results.
# Target: human ether-à-go-go-related gene (hERG) potassium channel (human, UniProt Q12809)
# Experiment: primary screen, population patch clamp on CHO cells stably expressing hERG
# 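Further: peak tail current of the secondary pulse compared with the same well before compound.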
# Chain of human ether-à-go-go-related gene (hERG) potassium channel (Q12809 whole entry, looked up): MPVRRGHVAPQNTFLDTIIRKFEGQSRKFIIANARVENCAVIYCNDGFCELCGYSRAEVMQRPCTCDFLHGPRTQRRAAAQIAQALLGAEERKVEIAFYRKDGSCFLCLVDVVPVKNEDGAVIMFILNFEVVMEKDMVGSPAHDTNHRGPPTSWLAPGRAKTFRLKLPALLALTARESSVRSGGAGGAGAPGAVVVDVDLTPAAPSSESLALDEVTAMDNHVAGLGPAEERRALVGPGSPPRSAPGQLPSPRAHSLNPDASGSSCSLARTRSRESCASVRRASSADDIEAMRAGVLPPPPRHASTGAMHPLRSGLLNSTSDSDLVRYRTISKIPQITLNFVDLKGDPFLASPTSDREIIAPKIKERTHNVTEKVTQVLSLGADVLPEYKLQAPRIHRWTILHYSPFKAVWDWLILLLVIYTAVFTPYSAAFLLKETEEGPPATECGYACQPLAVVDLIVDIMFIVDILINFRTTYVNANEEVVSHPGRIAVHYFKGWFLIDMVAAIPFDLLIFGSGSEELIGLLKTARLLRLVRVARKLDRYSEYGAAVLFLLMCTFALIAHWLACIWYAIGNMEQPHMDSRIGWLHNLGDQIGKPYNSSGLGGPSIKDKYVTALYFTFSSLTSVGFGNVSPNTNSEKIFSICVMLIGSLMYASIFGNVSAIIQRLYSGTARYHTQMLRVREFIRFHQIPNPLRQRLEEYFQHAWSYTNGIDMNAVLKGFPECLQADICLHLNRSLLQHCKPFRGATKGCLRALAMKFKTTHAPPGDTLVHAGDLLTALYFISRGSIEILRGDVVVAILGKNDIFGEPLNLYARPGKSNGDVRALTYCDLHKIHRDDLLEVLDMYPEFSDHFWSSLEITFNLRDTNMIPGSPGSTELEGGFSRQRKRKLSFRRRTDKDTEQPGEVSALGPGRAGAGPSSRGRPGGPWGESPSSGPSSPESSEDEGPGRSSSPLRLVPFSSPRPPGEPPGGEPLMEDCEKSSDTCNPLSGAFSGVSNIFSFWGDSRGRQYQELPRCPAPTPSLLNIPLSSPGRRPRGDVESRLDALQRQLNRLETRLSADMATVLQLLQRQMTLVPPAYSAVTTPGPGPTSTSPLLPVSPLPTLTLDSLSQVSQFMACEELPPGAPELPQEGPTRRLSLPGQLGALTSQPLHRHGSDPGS
row,SMILES,"hERG current change (%, negative = inhibition) at 10uM"
1,CNS(=O)(=O)c1cn(CC(=O)NCc2ccc(OC)cc2)cc1S(=O)(=O)NC,-0.325%
2,OCCOCCn1c(C(CO)Nc2nc(-c3cccc(Br)c3)cs2)nc2ccccc21 (stereo not shown),-12.5%
3,Cc1ccc(C)c(C(=O)CSc2nnnn2C(C)C)c1,-2.72%
4,CCOC(=O)c1c(C)nc2sc3c(c2c1-c1ccc(OC)cc1)NC(c1ccccc1)NC3=O (stereo not shown),7.86%
5,N#CC(C#SN)=C1CCCCC1,10.2%
6,CCC(=O)NC(O)C(=O)c1ccc(C)cc1 (stereo not shown),8.86%
7,COCCn1c(C)cc(C(=O)CSc2nc3ccccc3c(=O)[nH]2)c1C,-2.4%
8,Cc1ccc(C(=O)Nc2cc(C(C)C)c(O)c(C(C)C)c2)cc1,-4.12%
9,O=C(O)CC(NC(=O)/C(=C/c1ccccc1)NC(=O)c1ccccc1)c1ccccc1 (stereo not shown),18.1%
10,Cc1cc(C)cc(-n2nnc(C(=O)NCc3ccc(Cl)cc3)c2N)c1,6.02%
11,CCCNC(=O)NC(=O)COC(=O)CC(NC(N)=O)c1ccc(Cl)cc1 (stereo not shown),8.28%
12,CCN1C(=O)C2C(C1=O)N1C(c3ccccc3)C3C(=O)N(CC)C(=O)C3N1C2c1ccccc1 (stereo not shown),11.1%
13,COC(=O)c1ccc(NC(=O)CN(C2CCCCC2)S(C)(=O)=O)cc1,-6.05%
14,CCOc1cc(C2NCc3ccccc3-n3cccc32)ccc1OC.Cl (stereo not shown),-8.09%
15,NC(=O)C1(N2CCCCC2)CCN(C(=O)c2ccc(C#CC3(O)CCCCC3)cc2)CC1,-6.21%
16,O=C1c2ccccc2C(=O)N1Cc1nc(-c2ccccn2)no1,-7.74%
17,O/N=C(\C[n+]1ccccc1)c1ccc(Br)cc1.[Br-],9.53%
18,COc1ccc(-c2nn(Cc3ccccc3)cc2C(=O)NC2CC2)cc1OC,-11.9%
19,O=C(N/N=C/c1sc(N2CCOCC2)nc1-c1ccccc1)c1ccccc1O,2.57%
20,CC[C@H](C)/C=C(C)/C=C/C(=O)Cc1cc(O)c(C)c(O)c1C=O,2.93%
21,O=C(Cc1ccc(Cl)cc1)N/N=C/c1ccccc1,-1.13%
22,COc1ccc(C(CNC(=O)C2COc3ccccc3O2)N2CCCC2)cc1 (stereo not shown),-8.83%

row,SMILES,"hERG current change (%, negative = inhibition) at 10uM"
1,CCc1nc2oc3ccccc3c(=O)c2c(=O)n1Cc1ccc(OC)cc1,-25.4%
2,COc1ccc(OCc2cc(C(=O)NCC3CCOCC3)no2)c(Cl)c1,-0.305%
3,Cn1c(CNC(=O)Cc2ccc3c(c2)OCO3)nnc1SCc1ccccc1,1.39%
4,N#CC(c1ccc(Cl)cc1)c1ncc(C(F)(F)F)cc1Cl (stereo not shown),-13.5%
5,CS(=O)(=O)N(CC(=O)NC1CC1)C1CCCCC1,15.1%
6,Cc1cc(-c2n[nH]c(=S)n2/N=C/c2ccc(Br)s2)n[nH]1,13.4%
7,CC(C)Oc1ccc(C(=O)NNC(=O)c2ccccc2C(=O)O)cc1,2.81%
8,CNc1c(NS(=O)(=O)c2cc(NC(C)=O)ccc2C)c(=O)oc2ccccc12,19.9%
9,O=C(COC(=O)/C=C/c1cccc(F)c1)Nc1ccc2[nH]c(=O)[nH]c2c1,9.96%
10,N#CCCN(C(=O)COC(=O)C1CCN(S(=O)(=O)c2cccs2)CC1)c1ccccc1,-18.1%
11,Cc1ccc(S(=O)(=O)Nc2nnc(CC(C)(C)C)s2)cc1,-1.12%
12,Cc1ccc(C(=O)N2CCc3ccccc32)cc1NC(=O)c1ccco1,-68.1%
13,Cc1cc(C)cc(NC(=O)COC(=O)COc2cccc3c2OC(C)(C)C3)c1,2.92%
14,Nc1c(C(=O)NCc2ccc3c(c2)OCO3)c2nc3ccccc3nc2n1CCCN1CCOCC1,1.46%
15,O=C(Cc1ncn[nH]1)NCCc1ccccc1,-3.77%
16,CCn1c(SCC(=O)N(C)C2CCCCC2)nc2cc(S(N)(=O)=O)ccc21,-16.4%
17,O=C(CNc1ccc(Br)cc1)c1ccc(Br)s1,23.8%
18,O=C(Cc1cccs1)N1CCC(c2nc3c(nnn3Cc3ccc(F)cc3)c(=O)[nH]2)CC1,-38.9%
19,Cc1cc(C)cc(NC(=S)NCCCO)c1,-0.803%
20,COc1cc2c(=O)n(Cc3ccccc3)c(=O)n(CC(=O)NCC3CCCO3)c2cc1OC (stereo not shown),-13.1%
21,CCn1c(SCC(=O)Nc2ccc(C)cc2)nc(O)cc1=O,15.8%
